# This is one part of the list.
# Target: T1, OsWOX13 (Oryza sativa, UniProt Q5QMM3 1-267)
# T1 sequence: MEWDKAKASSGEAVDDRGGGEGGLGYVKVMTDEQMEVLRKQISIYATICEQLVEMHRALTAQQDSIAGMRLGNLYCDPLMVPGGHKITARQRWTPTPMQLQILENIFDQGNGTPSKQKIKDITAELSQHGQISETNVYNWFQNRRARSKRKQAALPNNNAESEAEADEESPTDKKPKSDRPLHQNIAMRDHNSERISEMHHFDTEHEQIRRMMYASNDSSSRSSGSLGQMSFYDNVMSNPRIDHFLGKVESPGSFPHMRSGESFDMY
# Test: protein-binding microarray (RPBM); PBS, 2% BSA, 51.3 ng/ul salmon testes DNA, 50 uM zinc acetate, 200 nM TF, 25 C, 1 h; high values mean tight binding
# Conditions: protein: recombinant; tags: N-terminal polyhistidine and DsRed monomer fusion (pET32a); label: CyDye5-dUTP incorporated in the synthesized complementary strand; 3' TTTTT single-stranded linker to array surface; dsDNA, one strand shown
# Outline: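 Transcription factors were each fused at the N-terminus to a polyhistidine tag plus DsRed and expressed in E. coli BL21-CodonPlus before Ni–NTA purification. Binding to a double-stranded custom Agilent array was carried out with 200 nM protein at 25 °C for 1 h in PBS, 2% BSA, salmon testes DNA and 50 µM zinc acetate. The binding signal is per-feature fluorescence intensity, in arbitrary units, on an Axon 4000B scanner.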
row,Sequence,binding signal
1,AGCCATTAATAACAATATGTTAACTAGTAATATGTTCGTGCGGAGTCACCTAGTGCAG,3790 fluorescence intensity (a.u.)
2,TGTAATTTGTTTTGTTATTAGACTATGTTTAATACTTCAACGGAGTCACCTAGTGCAG,5860 fluorescence intensity (a.u.)
3,TACTAATCCGCGCACTAATTGGATAATTAGTGGTGCGAGGCGGAGTCACCTAGTGCAG,35000 fluorescence intensity (a.u.)
4,CTGCTTAATTACTTCAGCCTTTACACATCAGCATATCATACGGAGTCACCTAGTGCAG,8250 fluorescence intensity (a.u.)
5,ATAATTGAGTAATACAATAAAGATTGACTGGGTACACAATCGGAGTCACCTAGTGCAG,23200 fluorescence intensity (a.u.)
6,GTACACAGATTGATGGATTTAATTAGCACACAGGTTTCATCGGAGTCACCTAGTGCAG,42800 fluorescence intensity (a.u.)
7,TAAGAATTAATTATAATAAAATTGCACTTCTGGCAACAGACGGAGTCACCTAGTGCAG,13900 fluorescence intensity (a.u.)
8,ACACAGGAAATTGATGTACAGTTTCTCCATATATTGTCAGCGGAGTCACCTAGTGCAG,10800 fluorescence intensity (a.u.)
9,AAATAATTACAATGTTTGCGTGTAAATTGCGAGACGAATCCGGAGTCACCTAGTGCAG,19500 fluorescence intensity (a.u.)
10,AGCTAGCTTTGACTAATCAATCAGCAGCTAATTTCAGTCTCGGAGTCACCTAGTGCAG,13700 fluorescence intensity (a.u.)
11,AATAATTTAACATGCAAATACAATAACTTGGTAAGTGAGTCGGAGTCACCTAGTGCAG,23900 fluorescence intensity (a.u.)
12,AATGATTATAGTACGACGAATGGAAGTTATATAGCTATATCGGAGTCACCTAGTGCAG,18400 fluorescence intensity (a.u.)
13,TTCAGGCAAATTGAACTCTTCTCGTCGATGCATAGGCATGCGGAGTCACCTAGTGCAG,4220 fluorescence intensity (a.u.)
14,ATGGAGAGTGATTAATTATGCTTTCTCCTGTGTGATTTACCGGAGTCACCTAGTGCAG,15100 fluorescence intensity (a.u.)
15,CAAATCTAAAGGCAGATTGATCGATCATGCAGAAATCGCCCGGAGTCACCTAGTGCAG,10200 fluorescence intensity (a.u.)
16,TTACAAATTTATGCACTAGTAGACTGCATCCACTAAGTTGCGGAGTCACCTAGTGCAG,6160 fluorescence intensity (a.u.)
17,GTTTGAAAATTAATTATAAATATTAAACGTAGACTATTAACGGAGTCACCTAGTGCAG,8440 fluorescence intensity (a.u.)
18,GACAGTTTGATTTCCTCTTGTGTTTATGCATTATTTTGTGCGGAGTCACCTAGTGCAG,3640 fluorescence intensity (a.u.)
19,GGATGTGATTTCAGTTTCAAAGGAACTTTGGATTGGTTCACGGAGTCACCTAGTGCAG,3740 fluorescence intensity (a.u.)
20,ACCGCAAGTGACAAATCATTAATTGGTACATCTTAAAAGTCGGAGTCACCTAGTGCAG,10800 fluorescence intensity (a.u.)
21,AGCCAAATCATTGGCATTGCCAATGCCCAATTTGATATTTCGGAGTCACCTAGTGCAG,4300 fluorescence intensity (a.u.)

row,Sequence,binding signal
1,ATGAATAAGCTATTAGATTGACTATAGATAAATTGGAGCTCGGAGTCACCTAGTGCAG,18200 fluorescence intensity (a.u.)
2,AAATGAGGTGGTATTAACGTATGATTGATTGAGTTTTAATCGGAGTCACCTAGTGCAG,13800 fluorescence intensity (a.u.)
3,CACACCTCCTGTCACACTGACTGGAACGCGCGCGCGCGCGCGGAGTCACCTAGTGCAG,25800 fluorescence intensity (a.u.)
4,GAGATTAATTTTCTATTCTCTCTTATTTATGGATCATTATCGGAGTCACCTAGTGCAG,17500 fluorescence intensity (a.u.)
5,ATAGCTAGTACTAATTAATACAGTACATAATTACAACACTCGGAGTCACCTAGTGCAG,3530 fluorescence intensity (a.u.)
6,AAGATTGAATCTGGATGATATCAGGAACCCAAAAGGCAAACGGAGTCACCTAGTGCAG,22300 fluorescence intensity (a.u.)
7,ATGACTTAACCCAATTATGACATTTAATCAAACACTAACCCGGAGTCACCTAGTGCAG,10300 fluorescence intensity (a.u.)
8,TTCATGTAATTTTGAATCATTAAATCTATTACAAGATTTGCGGAGTCACCTAGTGCAG,10000 fluorescence intensity (a.u.)
9,TTTGATGATCGTAATGACAGAGAACTCCTAACATTACTTCCGGAGTCACCTAGTGCAG,22100 fluorescence intensity (a.u.)
10,CTGCCGGATTAATTGCAATGAATTGAATTGAAGATCGATCCGGAGTCACCTAGTGCAG,24400 fluorescence intensity (a.u.)
11,CAATAATGATCATAATAGTTATAAATTCTTTTATTTGCATCGGAGTCACCTAGTGCAG,9980 fluorescence intensity (a.u.)
12,AGAACTTTTAATTATGATGTCTCTAAACAATTTTAGCTCACGGAGTCACCTAGTGCAG,5810 fluorescence intensity (a.u.)
13,TTGGACAAATCATTTGGCAAAATTTCAAAGTTTTGAATCTCGGAGTCACCTAGTGCAG,4390 fluorescence intensity (a.u.)
14,TACTGATTAATTAACACAAGTTACAGCGGAAACCTTGCCGCGGAGTCACCTAGTGCAG,52000 fluorescence intensity (a.u.)
15,GCAGCTAATTGTTCTGAATCTGAAATATTTCTCCTCAACACGGAGTCACCTAGTGCAG,12700 fluorescence intensity (a.u.)
16,AACCCAATAATCTTCAATCCAGTCTTGAATTGTTCTGGTGCGGAGTCACCTAGTGCAG,3500 fluorescence intensity (a.u.)
17,ATGGGATAACTGCCAAAGATGTGATTTTATAATGGTACGACGGAGTCACCTAGTGCAG,3980 fluorescence intensity (a.u.)
18,GAATTAATCAGGTAGAATTTCCCACATTCCCCACTAGGTCCGGAGTCACCTAGTGCAG,3220 fluorescence intensity (a.u.)
19,AACAAATTTCTTATATGATTCCTTCTATATTACCAAAAGTCGGAGTCACCTAGTGCAG,5180 fluorescence intensity (a.u.)
20,GCCGTGGATGTGAGGAAATTAATGTGCCTAACTGGCTAGACGGAGTCACCTAGTGCAG,3420 fluorescence intensity (a.u.)
21,ATAACACTGCTAATCAGTAATCTGGTTCCATTTTCCACGCCGGAGTCACCTAGTGCAG,12000 fluorescence intensity (a.u.)

row,Sequence,binding signal
1,TTTTAACCGAGGCAAATTTTAAATTATGAGCTAAATAATGCGGAGTCACCTAGTGCAG,6070 fluorescence intensity (a.u.)
2,AGATCAACTGATTGCATTGACCCTCCAGTGGACTGGAAGTCGGAGTCACCTAGTGCAG,9680 fluorescence intensity (a.u.)
3,TGGAGTGGAATTGGGATTGAGAAATGAATGAAGGGTTAGACGGAGTCACCTAGTGCAG,3380 fluorescence intensity (a.u.)
4,TTAATCAATGATTTCTTATATAGAGAGAACGGCCCTCACACGGAGTCACCTAGTGCAG,9740 fluorescence intensity (a.u.)
5,ATCGAATTGAGGGAGATAAATTGATCTTGTTTTAATAATTCGGAGTCACCTAGTGCAG,3450 fluorescence intensity (a.u.)
6,TGCTGATGACGAAATTAACGAGACTAACCGATCCATCAAGCGGAGTCACCTAGTGCAG,29200 fluorescence intensity (a.u.)
7,ATTGAATGAGATAAATGATATAACGTATGTCTAAAAGATACGGAGTCACCTAGTGCAG,6040 fluorescence intensity (a.u.)
8,TCTTAATGATTGTACCTCTAGTTTTGTTTTCTCTCTTGAACGGAGTCACCTAGTGCAG,24600 fluorescence intensity (a.u.)
9,CTAAAAGTAATTTAGACATATCATAAAAGTAATTTGTGATCGGAGTCACCTAGTGCAG,16000 fluorescence intensity (a.u.)
10,TAAGGTTGAAAATTTAAATTTTGGTTTATAAACATAAGCACGGAGTCACCTAGTGCAG,3760 fluorescence intensity (a.u.)
11,GCTCGTGATTTTCTGCTTGCCCGATTGGGCCTGCGATGTCCGGAGTCACCTAGTGCAG,5460 fluorescence intensity (a.u.)
12,AACCAAGTAAAATTATTTATTAATTTTGATAGTTAGTTACCGGAGTCACCTAGTGCAG,5660 fluorescence intensity (a.u.)
13,TTCATCTGATTTGCCCTACCTTTGCGCTCCGGCTTGCTCTCGGAGTCACCTAGTGCAG,7820 fluorescence intensity (a.u.)
14,TGTTATATTGCTATGATTGTTGAACACCTTCATTCTTGAACGGAGTCACCTAGTGCAG,11200 fluorescence intensity (a.u.)
15,AATATATGATTGATTTGTTACAACGAAATATATGGTGGGGCGGAGTCACCTAGTGCAG,49600 fluorescence intensity (a.u.)
16,ACAAACCCTCCCGTTGTTTCAATCAACGTTCATTTCGAACCGGAGTCACCTAGTGCAG,5240 fluorescence intensity (a.u.)
17,ACTAATAGAGGTGGCATCAATCAAATTTGCTCTTTCTTGTCGGAGTCACCTAGTGCAG,20900 fluorescence intensity (a.u.)
18,GATGAAATTATGTTGGATGATAATTTAACATGTTTGTATTCGGAGTCACCTAGTGCAG,11000 fluorescence intensity (a.u.)
19,ATAGTAAATATTTAATTGATCAAGCGCTAATCGCTGCTCCCGGAGTCACCTAGTGCAG,34500 fluorescence intensity (a.u.)
20,CACATGTAACATTAATTTCTTGCTACTTTAGCAACTACCCCGGAGTCACCTAGTGCAG,3550 fluorescence intensity (a.u.)
21,ACCTTGTAGATGTTTGGATTGATGCCAAAATTTACCAAAGCGGAGTCACCTAGTGCAG,3170 fluorescence intensity (a.u.)

row,Sequence,binding signal
1,GAGCTGATAATTAACTTGCGGAACGCAAGGGACGACACGACGGAGTCACCTAGTGCAG,5450 fluorescence intensity (a.u.)
2,GGGGAGTAATTGCTAATGGGTGATGATGTGACACATTTGTCGGAGTCACCTAGTGCAG,24800 fluorescence intensity (a.u.)
3,TAATAAATTAAAATTTTGTTAAATTTGTTAGACAAACTCCCGGAGTCACCTAGTGCAG,41300 fluorescence intensity (a.u.)
4,TTAATTTGATGAAACTAATTTAGTATTATAAATATTACTACGGAGTCACCTAGTGCAG,19400 fluorescence intensity (a.u.)
5,GACCAAACCTCCAATTAACAAGGTAGTTTAACACACATCACGGAGTCACCTAGTGCAG,6600 fluorescence intensity (a.u.)
6,CATGATTGCACCCTCAAGCAAAGTCCGAATTGATCACCTTCGGAGTCACCTAGTGCAG,25200 fluorescence intensity (a.u.)
7,GGACCCTAATTACCCATGTTTAGGTGTGTCGCCAGTATCGCGGAGTCACCTAGTGCAG,9100 fluorescence intensity (a.u.)
8,GAAATCTAATTTTATCCACGAGACTATAGTGAGCCTACTCCGGAGTCACCTAGTGCAG,4290 fluorescence intensity (a.u.)
9,AGTTGACGAGACGGACACACAGAGGAAGACAGATTAGTCACGGAGTCACCTAGTGCAG,3980 fluorescence intensity (a.u.)
10,TATATAGATTGGGAATTTGGGATTTGATACAAAGTACTAACGGAGTCACCTAGTGCAG,9520 fluorescence intensity (a.u.)
11,GGTAGCTAATTAGCACATATTTAATTAAGAATAGTTACGACGGAGTCACCTAGTGCAG,33100 fluorescence intensity (a.u.)
12,ATGGACAGATTGAAACATTAAGAACTAAACTGATCATTGTCGGAGTCACCTAGTGCAG,21500 fluorescence intensity (a.u.)
13,ACACTAATCACTACTTGCCACATGCAGTAACACTCGCCTACGGAGTCACCTAGTGCAG,6540 fluorescence intensity (a.u.)
14,TGGTGATAATGTCATTCTGTTATTACAGAGGTCAACGTGTCGGAGTCACCTAGTGCAG,3410 fluorescence intensity (a.u.)
15,CATTCTAGTGATTATTGCGACCGTTACTGGCTCTTTCATTCGGAGTCACCTAGTGCAG,4350 fluorescence intensity (a.u.)
16,AAATTAATTAATACTATCCGCCACCTTCTCTCAACTCTGACGGAGTCACCTAGTGCAG,27600 fluorescence intensity (a.u.)
17,TGAACCATAATTTCACTGTCTATACATGTAACATTATCTTCGGAGTCACCTAGTGCAG,3650 fluorescence intensity (a.u.)
18,GAAGGGATTGACGAAAATAGGTGTGAAAGCCATATGCATTCGGAGTCACCTAGTGCAG,13900 fluorescence intensity (a.u.)
19,CTTAATGAAATTGAAAATTTTAACTAAAGGGCAAATACAACGGAGTCACCTAGTGCAG,20000 fluorescence intensity (a.u.)
20,CTCGTTGGCTAGAGCGCGAGAGCCAGTAGCCGCAGCTGCACGGAGTCACCTAGTGCAG,19500 fluorescence intensity (a.u.)
21,CGAATGAATTGATACAGTACATTTCAGGGATTTCATTAGTCGGAGTCACCTAGTGCAG,4750 fluorescence intensity (a.u.)
